Source: PubChem BioAssay AID1956 (SRMLSC, 2009)
The list shows a part of the results. Further columns of the screen follow, without active or inactive calls.

experiment: enhancers of HSV replication in host cells, fold increase, host cell viability (AID 1956); conditions: HSV replication augmentation in cells; fold increase: measured here: primary screen fold increase 10 uM, at 10 µM, stronger effect = higher value; viability: measured here: host cell viability series, at 25 µM, stronger effect = lower value; also: tested in PC3 cells

| SMILES | fold increase | viability [%] |
| --- | --- | --- |
| N#Cc1c(NC(=O)CCN2C(=O)c3ccccc3C2=O)oc(-c2ccccc2)c1-c1ccccc1 | 1.17 |  |
| Cc1cc2cc(CNC(=O)c3cccs3)ccc2n1C | 1.64 | 92.9 |
| N=C1c2ccccc2CN1NC(=O)c1cccc(S(=O)(=O)N2CCOCC2)c1 | 1.33 |  |
| O=C(Cc1ccccc1)Nn1c(O)c(/C=C2\C=Nc3ccccc32)sc1=S | 4.8 | 61 |
| COc1ccc(/C=C/C(=O)NC(=S)NNC(=O)c2ccco2)cc1 | 1.14 |  |
| N=C1/C(=C\c2coc3ccccc3c2=O)C(=O)N=C2SC(c3ccncc3)=NN12 | 1.49 | 95.3 |
| O=C(CSc1nncs1)NC(=O)NCc1ccccc1 | 1.32 | 98.3 |
| CN(C)CCCn1c(N)c(C#N)c2nc(C#N)c(C#N)nc21 | 1.15 | 50.1 |
| COc1ccc(-c2cn[nH]c2C)cc1 | 1.33 | 105 |
| O=C(CCCSc1ccccc1)Nc1nc(-c2ccco2)c(-c2ccco2)s1 | 1.34 | 95.3 |
| CC(=O)N1CCN(c2ccc(NCc3ccc4c(c3)OCO4)cc2)CC1 | 1.33 |  |
| CCN(c1ccc(N=Cc2c(O)n(Cc3ccc(OC)cc3)c(=O)c3ccccc23)cc1)C(C)C | 7.53 | 97.3 |
| CC1CCCCC1NC(=O)CN1CCC(O)(c2ccc(F)cc2)CC1 (stereo unspecified) | 1.36 | 102 |
| COc1cc(NC(=O)Cc2cccs2)c(C(=O)O)cc1OC | 1.54 | 95.6 |
| CC1=NN(c2nc(-c3ccccc3)cs2)C(=O)C1 | 1.83 |  |
| O=c1ccc2[n+]([O-])c3ccc(O)cc3oc-2c1 | 1.38 | 75 |
| C/C(=N\NC(=S)Nc1cccc(C)c1)c1ccccc1 | 1.11 |  |
| CCOCCc1nnc(NC(=O)c2cc(OC)c(OC)cc2[N+](=O)[O-])s1 | 1.34 | 99.3 |
| COc1ccc(-n2c(O)c(/C=N/NS(=O)(=O)c3ccc(C)c([N+](=O)[O-])c3)c3ccccc3c2=O)cc1OC | 2.6 | 96.6 |
| N#CC1=C(N)Oc2c(sc3ccccc23)C1c1ccco1 (stereo unspecified) | 1.59 | 82.4 |
| FC(F)(F)c1ccc2c(c1)N1CCCC1CN2 (stereo unspecified) | 1.34 | 86.9 |
| COc1ccc(C(C#N)N2N=C(c3ccccc3)CC2c2ccccc2)cc1OC (stereo unspecified) | 1.34 | 87 |
| CCN(C(=O)CSc1nc2ccccc2c(=O)n1-c1cccc(C)c1)C1CCS(=O)(=O)C1 (stereo unspecified) | 1.72 | 97.2 |
| O=C1c2cccc3c(N4CCCCC4)ccc(c23)C(=O)N1c1cccc(O)c1 | 7.68 | 81.3 |
| CCCCn1ccnc1C(=O)c1cccc(S(=O)(=O)N2CC(C)CC(C)C2)c1 (stereo unspecified) | 1.33 | 76.4 |

| SMILES | fold increase | viability [%] |
| --- | --- | --- |
| CC1(C)CC(=O)C=C(NCCN2CCN(C(=S)Nc3ccc(F)cc3)CC2)C1 | 1.42 | 101 |
| O=C(C1=NN(c2ccccc2)C2C(=O)N(c3cccc(Cl)c3)C(=O)C12)c1ccccc1 (stereo unspecified) | 3.23 | 102 |
| COc1cc(/C=C2/CC/C(=C/c3ccc(O)c(OC)c3)C2=O)ccc1O | 1.42 | 44.1 |
| O=C(O)c1ccc(-n2cncn2)c([N+](=O)[O-])c1 | 1.43 | 96.8 |
| Cc1ccccc1-n1cc(C(=O)c2cc(Cl)ccc2O)cc(C#N)c1=O | 1.54 | 81 |
| O=C(/C=C/c1cccs1)NC(=S)Nc1ccc(C(=O)O)cc1 | 1.44 | 96.4 |
| CCN(CC)C(=O)CSc1nnc2nnc3cc(Cl)ccc3n12 | 1.38 | 85.2 |
| C=CCN(CC=C)C(=S)NCCc1ccc(OC)c(OC)c1 | 1.4 | 105 |
| CCN(C(=O)COC(=O)c1cc2ccccc2cc1O)C1CCS(=O)(=O)C1 (stereo unspecified) | 1.32 |  |
| CCc1cccc2cc3c(N)c(C(=O)Nc4ccc(S(=O)(=O)N5CCCC5)cc4)sc3nc12 | 5.92 | 93.5 |
| CC1(C)CC(=O)C=C(N2CCCC2)C1 | 1.34 | 88.3 |
| Cc1ccccc1C(=O)Nc1cccc(NC(=S)NC(=O)c2cccs2)c1 | 1.21 |  |
| O=C1c2cccc3c(N4CCCCC4)ccc(c23)C(=O)N1c1ccccc1O | 8.29 |  |
| O=C(Nc1cccnc1)c1cc(-c2ccco2)on1 | 1.34 | 101 |
| CCc1ccc2nc3sc(C(=O)Nc4nnc(CC)s4)c(N)c3cc2c1 | 2.71 | 91.5 |
| O=C(COC(=O)/C=C/c1cccs1)NC(c1ccccc1)c1ccccc1 | 1.34 | 94.5 |
| C=CCn1c(=O)/c(=C/c2ccc(O)cc2)s/c1=C(/C#N)c1nnc2n1CCCCC2 | 3.66 |  |
| Cc1c(N=C2N=C(NC(=O)c3cccs3)c3ccccc32)c(=O)n(-c2ccccc2)n1C | 1.7 | 71.9 |
| Cc1ccccc1-n1c(O)c(/C=C/C=Nc2ccccc2)c(=O)[nH]c1=O | 3.61 |  |
| Cc1cccc(CSc2nnc(-c3cnccn3)n2C)c1 | 1.35 | 98.8 |
| COc1ccccc1NC(=O)C1=C(C)NC(SCC(=O)c2ccccc2)=C(C#N)C1c1ccco1 (stereo unspecified) | 1.42 |  |
| c1cncc(-c2nc3ccccc3[nH]2)c1 | 1.27 | 94.8 |
| Cc1ccnc(N/C=C(\C#N)c2nc(-c3cccc(Br)c3)cs2)c1 | 6.75 | 83.8 |
| CSc1cccc(NC(=O)c2ccccn2)c1 | 1.34 | 96.4 |
| Cc1ccc(CNc2ccc3c(c2)OCO3)c(C)c1 | 1.37 |  |

| SMILES | fold increase | viability [%] |
| --- | --- | --- |
| O=C1c2cccc3c([N+](=O)[O-])ccc(c23)C(=O)N1Cc1cccnc1 | 7.98 | 2.31 |
| CCOC(=O)c1cc(C(=O)c2ccccc2O)cn2c(=O)c3c(C)c(C)sc3nc12 | 2.81 | 87.1 |
| OCCNc1c2ccccc2nc2c(F)c(F)c(F)c(F)c12 | 1.65 | 31.6 |
| COc1cc(/C=C2/SC(=S)N(c3ccccc3)C2=O)ccc1Oc1nc(N2CCOCC2)nc(N2CCOCC2)n1 | 1.59 | 93.8 |
| Cc1nonc1NC(=O)CSc1nc2c(C)cccc2cc1C#N | 2.3 |  |
| Nc1ccc(Oc2ccc(F)cc2)nc1 | 1.92 | 102 |
| Cc1cc2cc(CNC(=O)COc3ccccc3)ccc2n1C | 1.49 | 102 |
| O=C(Nc1ccccc1F)NC1CCN(Cc2nnnn2Cc2ccc(F)cc2)CC1 | 1.47 | 108 |
| N#C/C(=C\c1ccc([N+](=O)[O-])o1)c1nc2ccccc2[nH]1 | 4.51 | 53.2 |
| Clc1ccc(/C=N/NC2=Nc3cccc4cccc2c34)cc1 | 1.7 | 88.7 |
| Cc1cc(C)c(C)c(/C=C(/C#N)C(N)=S)c1C | 1.45 | 100 |
| O=C(Nc1ccc(O)cc1)c1ccc(C(=O)c2ccccc2)o1 | 1.33 |  |
| Cc1ccc(NC(=O)CSc2nnc(-c3ccncc3)n2N)cc1C | 1.38 | 95.5 |
| Cc1ccc(-c2noc(-c3ccccc3C(=O)NCc3ccco3)n2)cc1 | 1.41 | 102 |
| CCCn1nnc(NC(=S)NC(=O)/C=C/c2ccco2)n1 | 1.41 | 99.1 |
| O=C(Nc1cccnc1Cl)C1c2ccccc2Oc2ccccc21 | 1.17 |  |
| CCn1c(C)c(C(C)=O)c(N2CCN(c3cccc(Cl)c3)CC2)nc1=S | 1.34 |  |
| CC(=Nc1cccc(C)c1)c1sc2ccccc2c1O | 2.37 | 87.6 |
| Oc1ccccc1CNc1nc2ccccc2n1CCN1CCCCC1 | 1.4 | 94.9 |
| Cc1c(N=C2NC(=O)/C(=C/c3cccc([N+](=O)[O-])c3)S2)c(=O)n(-c2ccccc2)n1C | 1.32 |  |
| COc1ccc(-c2cc(-c3ccco3)[nH]c(=O)c2C#N)cc1OC | 1.57 | 92.7 |
| N/C(CSc1ccccn1)=N\OCc1c(Cl)cccc1Cl | 1.49 | 105 |
| Cc1ccc(-n2cccc2/C=C2/C(=N)N3C(=NC2=O)SN=C3S(C)(=O)=O)cc1Cl | 1.56 | 94 |
| CCN1/C(=C\c2ccc3ccccc3[n+]2CC)Sc2cc(C)ccc21 | 5.57 | 14.1 |
| O=C(O)c1ccc(N=Nc2c(O)[nH]c3cc(Cl)ccc23)cc1 | 4.66 | 99.9 |

| SMILES | fold increase | viability [%] |
| --- | --- | --- |
| O=C(Nc1ccc(N2CCCC2)cc1)C(c1ccccc1)c1ccccc1 | 1.35 |  |
| CC(C)NC(=O)CC(=O)NN=C1CCCCC1 | 1.38 | 99.8 |
| COc1cc(C(=O)NCCCN2CCCC2=O)cc(OC)c1OC | 1.45 | 94.9 |
| Cc1cc(C)n2[nH]c(=O)c(N=Nc3cccc(Cl)c3)c2n1 | 1.27 |  |
| Cc1ccc(CC(=O)Nc2ncc([N+](=O)[O-])s2)cc1 | 1.57 | 92.8 |
| CCOc1ccc(C2C=C(c3ccccc3)Nc3nnnn32)cc1 (stereo unspecified) | 1.47 | 100 |
| O=c1cc(-c2ccccc2)[nH]n1-c1nc2ccccc2[nH]1 | 1.32 |  |
| CC1CCN(C(=S)c2cn(Cc3ccccc3F)c3ccccc23)CC1 | 1.16 |  |
| COCCCNc1c2c3c(cccc3[nH]c1=O)C(=O)c1ccccc1-2 | 5.06 | 53.2 |
| CC1CCc2c(sc(Nc3nc4c(F)cccc4s3)c2C(N)=O)C1 (stereo unspecified) | 4.08 | 84.6 |
| CC1=NN(c2ccccc2)C(=O)/C1=C\C=C1/N(C)c2ccccc2C1(C)C | 1.26 |  |
| Clc1nc(-c2ccccc2)cc(-c2ccccc2)n1 | 1.46 | 95.6 |
| CCOc1cc(/C=C2\CCC/C(=C\c3cc(Cl)c(O)c(OCC)c3)C2=O)cc(Cl)c1O | 1.91 | 32 |
| Cc1coc(NC(=O)CSc2nc(-c3ccncc3)cc(C(F)(F)F)c2C#N)n1 | 1.71 | 90.3 |
| CC(NC(=O)/C(C#N)=C1\N=C(NC(=O)c2cccs2)c2ccccc21)c1ccccc1 (stereo unspecified) | 1.42 |  |
| COc1cc(/C=C2/SC(=NCc3ccccc3)N(Cc3ccccc3)C2=O)ccc1O | 1.65 | 97.3 |
| COc1cc(/C=C2\C(C)=C(C#N)c3nc(N)c(C#N)c(C)c32)ccc1OCC(=O)O | 1.36 | 93.5 |
| Cc1ccc(C(=O)NC(=S)/C=C2\N(C)c3ccccc3C2(C)C)cc1 | 2.86 |  |
| CCCn1c(N)c(C(=O)CSc2nc3ccccc3n2CCC#N)c(=O)n(C)c1=O | 1.24 |  |
| O=C(/C=C/c1ccccc1)c1cc(Br)ccc(=O)c1O | 1.51 |  |
| O=C(NC1CCCCC1)C(c1cccs1)N(C(=O)c1ccco1)c1ccc2c(c1)OCCO2 (stereo unspecified) | 1.25 |  |
| Oc1ccc(/C=N/N=C(c2ccccc2)c2ccccc2)c(O)c1O | 2.03 | 98.1 |
